Test results: patent publication US20260234211A1, “POLYPEPTIDE HAVING MODIFIED STRUCTURE AND USE THEREOF” (Guangdong Raynovent Biotech Co., Ltd., priority 2023, published 2026)
Part of at least one peptide drawing is inferred or uncertain, most often the ends. Numbered stars: 1 amine (or outer) side, 2 acyl side, 3 side chain; on linkers, the order of the positions; unused ones are H or OH. Bridge positions count the residues as written; N and C are the ends. Square brackets hold non-standard residues; d marks the D form. Peptide text beside a SMILES is read from it. X2 = O=C(O)CCCCCCCCCCCCCCCCCCC(=O)N[C@@H](CCC(=O)NCCOCCOCC(=O)N[C@@H](CCC(=O)[*:2])C(=O)[*:1])C(=O)O; αMeL = CC(C)C[C@](C)(N)C(=O)O; Aib = CC(C)(N)C(=O)O

Molecular target: T1, GCGR (Homo sapiens, UniProt P47871)
T1 construct: host or cells: HEK293
Test: In vitro GCGR agonistic activity test (cAMP, HEK293 cell line)
Type: cell-based
Conditions: HEK293 cells expressing GCGR, read-out: GCG EC50
Procedure: The cell lines were constructed by Pharmaron Inc. See details in the table below.
The test compounds were diluted at a 5-fold dilution factor in 10 points, starting from an initial concentration of 200 nM.
1) The cell lines were cultured respectively in complete medium at 37° C. and 5% CO2.
2) After digestion with TrypLE, the cells were re-suspended in experimental buffer respectively, and inoculated in a CulturPlate-384 cell culture plate at a density of 2000 cells/well and at a volume of 15 μL/well.
1) Eu-cAMP tracer was freeze-thawed and diluted 50 fold with detection buffer; and Ulight-anti-cAMP was freeze-thawed and diluted 150 fold with detection buffer.
2) 5 μL of the test compounds were added respectively into experimental wells of the CulturPlate-384 cell culture plate, which was centrifuged at 200 g for 30 s, and left for stand at 37° C. for 30 min.
3) 10 μL of Eu-cAMP tracer was added and then 10 μL of Uligh-anti-cAMP was added into experimental wells respectively.
4) The reaction plate was centrifuged at 200 g at room temperature for 30 s and left for stand at 25° C. for 1 h.
5) Envision 2105 was used to collect data, with excitation light at 340 nm and emission light at 665 nm and 615 nm.

T1 sequence (P47871 26-477, species assumed): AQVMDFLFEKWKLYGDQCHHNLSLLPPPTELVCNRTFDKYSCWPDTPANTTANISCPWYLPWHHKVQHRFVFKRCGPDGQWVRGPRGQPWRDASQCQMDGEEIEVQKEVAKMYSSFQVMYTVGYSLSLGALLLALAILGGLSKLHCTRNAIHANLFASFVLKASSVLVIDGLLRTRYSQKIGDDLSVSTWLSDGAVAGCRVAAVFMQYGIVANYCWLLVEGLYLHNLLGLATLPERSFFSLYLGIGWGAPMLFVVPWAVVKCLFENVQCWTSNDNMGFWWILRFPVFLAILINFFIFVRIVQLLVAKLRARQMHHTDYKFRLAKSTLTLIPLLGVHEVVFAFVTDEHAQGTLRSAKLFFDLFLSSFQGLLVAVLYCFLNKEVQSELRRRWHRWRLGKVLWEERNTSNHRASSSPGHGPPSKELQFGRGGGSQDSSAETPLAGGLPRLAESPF

CC[C@H](C)[C@H](NC(=O)[C@H](Cc1ccccc1)NC(=O)[C@@H]1CCCCNC(=O)CC[C@H](NC(=O)COCCOCCNC(=O)CC[C@H](NC(=O)CCCCCCCCCCCCCCCCCCC(=O)O)C(=O)O)C(=O)NCCCC[C@H](NC(=O)[C@H](CCCCN)NC(=O)[C@H](CC(=O)O)NC(=O)[C@H](CC(C)C)NC(=O)[C@](C)(CC(C)C)NC(=O)[C@@H](NC(=O)[C@H](CO)NC(=O)[C@H](Cc2ccc(O)cc2)NC(=O)[C@H](CC(=O)O)NC(=O)[C@H](CO)NC(=O)[C@@H](NC(=O)[C@H](Cc2ccccc2)NC(=O)[C@@H](NC(=O)CNC(=O)[C@H](CCC(N)=O)NC(=O)C(C)(C)NC(=O)[C@@H](N)Cc2ccc(O)cc2)[C@@H](C)O)[C@@H](C)O)[C@@H](C)CC)C(=O)N[C@@H](C)C(=O)N[C@@H](CCC(N)=O)C(=O)NC(C)(C)C(=O)N1)C(=O)N[C@@H](CCC(=O)O)C(=O)N[C@@H](Cc1ccc(O)cc1)C(=O)N[C@@H](CC(C)C)C(=O)N[C@@H](CC(C)C)C(=O)N[C@@H](CCC(=O)O)C(=O)NCC(=O)NCC(=O)N1CCC[C@H]1C(=O)N[C@@H](CO)C(=O)N[C@@H](CO)C(=O)NCC(=O)N[C@@H](C)C(=O)N1CCC[C@H]1C(=O)N1CCC[C@H]1C(=O)N1CCC[C@H]1C(=O)N[C@@H](CO)C(N)=O [Example 8, YAibQGT FTSDY SIα- MeLLD K^1KAQAib ^1KFIEY LLEGG PSSGA PPPS-NH2 (SEQ ID NO: 1)] (H-Y[Aib]QGTFTSDYSI[αMeL]LDKKAQ[Aib]KFIEYLLEGGPSSGAPPPS-NH2; linker 17-21 via X2 (inferred); N-terminus assumed)
EC50: 0.012 nM
